Test results from PubChem BioAssay (NCI).
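Step 1: Grow cells in 96-well plates. Step 2: Expose to compound for 48 hours at 5 concentrations. Step 3: Interpolate endpoints linearly; if unreached, use highest concentration. GI50 = concentration required for 50% inhibition of growth. TGI denotes the concentration required for complete inhibition of growth.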

System: NCI-H322M lung
Test: growth of human tumour cells (NCI), 48 h

Structure (SMILES) | TGI | GI50
c1cc(-c2ccc(-c3nc4ccc(C5=NCCN5)cc4s3)s2)ccc1C1=NCCN1 | 1.59 µM | 
COc1cc2cc(C(=O)N3CC(CCl)c4ccc([N+](C)(C)Cc5ccc([N+](=O)[O-])cc5)cc43)[nH]c2c(OC)c1OC (stereo not drawn) | 50.7 µM | 
Cc1c(O)c(OC2OC(CO)C(O)C(O)C2O)cc2c1CC[C@@H]1C2(C)C(=O)C[C@]2(C)[C@@H]([C@@](C)(O)C3CCC(C)(C)O3)[C@H](O)C[C@@]12C (stereo partly drawn) | > 100 µM | 
C/C=C/C/C=C/[C@H](C)C[C@H](O)[C@@H]1C[C@@H]2O[C@H]2/C=C/[C@@H]2OC(C)(C)O[C@H]2/C=C/C[C@H](C)CC(=O)O1 | > 100 µM | 17.9 µM
N#C/C(c1nc2ccccc2[nH]1)=c1\s/c(=C(/N)O)c(=N)n1-c1ccccc1 | > 100 µM | 
C=C1[C@H]2O[C@H]2[C@@H](OC(C)=O)[C@@]2(C)[C@@H](OC(C)=O)C[C@@H](OC(=O)CCC)[C@@](C)(O)[C@@H]2[C@@H](OC(C)=O)[C@]2(O)[C@@H](C)C(=O)O[C@H]2[C@H]1Cl | > 100 µM | 
CCN(CC)c1c(-c2ccccc2)n[nH]c1C(=O)OC | 55.7 µM | 13.9 µM
O=C1/C(=C/c2ccc3c(c2)OCCO3)CCC/C1=C\c1ccc2c(c1)OCCO2 | > 100 µM | 
N#Cc1ccc(-c2c(-c3ncn[nH]3)sc(N3CCOCC3)c2C#N)c(F)c1 | 7.02 µM | 0.362 µM
O=C1CNC(=O)/C(=C/c2c[nH]c3ccccc23)N1 | > 100 µM | 
S=C=Nc1ccc(CSc2nc3ccccc3[nH]2)cc1 | 32.2 µM | 
NCCCOc1cc2ccccc2cc1C(=O)Nc1ccc(Cl)cc1OC(=O)c1cc2ccccc2cc1OCCCN | 0.943 µM | 0.332 µM
CN(C)C1(N(C)C)Oc2c(c(=O)n(C)c(=O)n2C)C(c2ccc(C(F)(F)F)cc2)C1(F)F (stereo not drawn) | > 100 µM | 
S=c1o[nH]c(-c2ccccc2)c1C=Nc1ccccc1 | > 100 µM | 
C/C(=N\NC(N)=S)c1ccc(C)c(C)c1 | > 100 µM | 
Cc1ccc(/C=C2/N=C(N/N=C\C(O)C(O)C(O)CO)NC2=O)cc1 (stereo not drawn) | > 100 µM | 
CCOC(=O)C(Cc1c[nH]c2cc(N(CCO)CCO)ccc12)(NC(C)=O)C(=O)OCC | > 1000 µM | > 1000 µM
CC(C)c1ccc(C2NC(=S)NC3=C2c2ccccc2C3=O)cc1 (stereo not drawn) | > 55.2 µM | 
CCO/S(=N/S(=O)(=O)c1ccccc1)c1ccccc1[N+](=O)[O-] (stereo not drawn) | > 100 µM | 
CC1=NN(c2nc(N)nc(CSc3cc(Cl)c(C)cc3S(N)(=O)=O)n2)C(C)(C)C1 | > 10 µM | 
CN(C)CCCNc1ccc2nnn3c4ccc(OC(=O)c5ccccc5)cc4c(=O)c1c23 | 17.7 µM | 
O=[N+]([O-])c1ccc(-n2nc3ccc4c(no[n+]4[O-])c3[n+]2[O-])c([N+](=O)[O-])c1 | 7.91 µM | 
COC1=N[C@H](C(C)C)C(OC)=N[C@H]1Cc1ccc(C[C@@H]2N=C(OC)[C@@H](C(C)C)N=C2OC)s1 | > 100 µM | 
